Assay results taken from patent publication US20180258175A1 (ABLEXIS, published 2018).
Where a chain is given by its changes, count along the chain named. Blank lines part the entries; values can stand above or below the binder they belong to.

What was measured:
[1] = biological target: T1, human CD115 extracellular domain (Sino Biological 10161-H08H) (human, UniProt P07333 fragment); test: competition ELISA, competitor TMR 35A;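 note: clonal hybridoma supernatant antibodies added to wells after the competitor mouse antibody, lost binding signal puts an antibody in that competitor's epitope bin; low signal means same epitope bin as the mouse competitor antibody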
T1 construct: extracellular domain; bought recombinant protein; also called huCD115; hu-CD115

[2] = biological target: T1, human CD115 extracellular domain (Sino …); test: competition ELISA, competitor TMR 20A;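 note: epitope binning by ELISA, anti-huCD115 hybridoma supernatant antibodies tested for binding to huCD115 with the competitor antibody present, loss of binding placing them in the competitor's bin; low signal means same epitope bin as the mouse competitor antibody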
[3] = biological target: T1, human CD115 extracellular domain (Sino …); test: competition ELISA, competitor TMR 95A;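 note: clonal anti-huCD115 hybridoma supernatants tested for binding while a competitor mouse antibody is present, where failure to bind assigns them to that competitor's epitope bin; low signal means same epitope bin as the mouse competitor antibody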
[4] = biological target: T1, human CD115 extracellular domain (Sino …); test: competition ELISA, competitor TMR 24A;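 note: clonal anti-huCD115 hybridoma supernatant antibodies bound with a competitor mouse antibody present, and failure to bind puts a clone in that competitor's epitope bin; low signal means same epitope bin as the mouse competitor antibody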
[5] = biological target: T1, human CD115 extracellular domain (Sino …); test: competition ELISA, competitor TMR 44B
[6] = biological target: T1, human CD115 extracellular domain (Sino …); test: competition ELISA, competitor TMR 100A
[7] = biological target: T1, human CD115 extracellular domain (Sino …); test: SPR ProteOn, supernatant mAb captured on anti-mouse IgG, Hu CD115 analyte

signal vs NO COMP=100 [1]: 98%
signal vs NO COMP=100 [2]: 104%
signal vs NO COMP=100 [3]: 94%
signal vs NO COMP=100 [4]: 96%
signal vs NO COMP=100 [5]: 93%
signal vs NO COMP=100 [6]: 106%
B1: CCK-401A (antibody, V domains shown)
VH: not shown
VL: DIQMTQSPSSLSASVGDRVTITCQASQDISDYLNWYQQKPGKAPKLLIYDESNLETGVPSRFSGSGSGTDFTFTISSLQPEDIGTYYCQQYDNLLTFGPGTKVDIK
notes: AlivaMab chimeric IgG, human kappa LC

signal vs NO COMP=100 [1]: 99%
signal vs NO COMP=100 [2]: 103%
signal vs NO COMP=100 [3]: 87%
signal vs NO COMP=100 [4]: 96%
signal vs NO COMP=100 [5]: 88%
signal vs NO COMP=100 [6]: 109%
B2: CCK-406A (antibody, V domains shown)
VH: [letters of about 100 residues not shown]NDYGGPVDAFDIWGQGTMVTVSS
VL: DIVMTQSPDSLAVSLGERATINCKSSQSVLYSSNKKNYLTWYQQKVGQPPKLLIYWASTRESGVPDRFSGSGSGTDFTLTISSLQAEDVAVYYCQQYYSTPFTFGGGTKVEIK
notes: as for B1

signal vs NO COMP=100 [1]: 91%
signal vs NO COMP=100 [2]: 106%
signal vs NO COMP=100 [3]: 86%
signal vs NO COMP=100 [4]: 92%
signal vs NO COMP=100 [5]: 87%
signal vs NO COMP=100 [6]: 101%
B3: CCK-414A (antibody, V domains shown)
VH: [letters of about 100 residues not shown]GDYSYTDAFDIWGQGTMVTVSS
VL: B2 VL with K35N, T40A, V46P, Y55F, E61D, F102L
notes: as for B1

signal vs NO COMP=100 [1]: 3%
Kd [7]: 0.68 nM
koff [7]: 3.38e-05 s⁻¹
kon [7]: 50000 M⁻¹ s⁻¹
signal vs NO COMP=100 [2]: 90%
signal vs NO COMP=100 [3]: 77%
signal vs NO COMP=100 [4]: 86%
signal vs NO COMP=100 [5]: 84%
signal vs NO COMP=100 [6]: 95%
B4: CCK-459A (antibody, V domains shown)
VH: [letters of about 100 residues not shown]ESPYWYFDLWGRGTLVTVSS
VL: B2 VL with S28T, N34D, K35N, T40A, V46P, F102R, G106Q
notes: as for B1
